Among the data in the antibiotic and cytotoxicity screens of Wong et al. (2023) are cytotoxicity call and growth inhibition call values, retold here.

One experiment relates to HSkMC. Nature of the experiment: cytotoxicity call (relative viability < 0.9). The settings on record: 10 µM.
A further experiment concerns HepG2. Kind of experiment: cytotoxicity call (relative viability < 0.9). The settings on record: 10 µM.
A further experiment concerns S. aureus RN4220. Nature of the experiment: growth inhibition call (relative growth <= 0.2). The settings on record: 50 µM.

The list shows a part of the results.

For `C[C@@H]1CN([C@H](C)CO)C(=O)CCCn2nncc2CO[C@@H]1CN(C)C(=O)Nc1ccc2c(c1)OCO2`, the cytotoxicity call in the experiment on HSkMC and with HepG2 was “inactive” throughout. In addition, in the experiment with S. aureus RN4220, the growth inhibition call was “inactive”.
Take `C[C@@H]1CCCCO[C@@H](CN(C)C(=O)Nc2ccccc2)[C@@H](C)CN([C@@H](C)CO)C(=O)c2cc(NC(=O)C3CCCCC3)ccc2O1`: the cytotoxicity call in the experiment on HSkMC and in the experiment on HepG2 was “inactive” throughout. Also, the growth inhibition call in the experiment with S. aureus RN4220 was “inactive”.
As for `O=S(=O)(NCC[C@H]1CC[C@@H](NS(=O)(=O)c2ccccc2Cl)[C@@H](CO)O1)c1ccc(Cl)cc1`, the cytotoxicity call in the experiment with HSkMC and in the experiment with HepG2 was “inactive” in each case. In the experiment with S. aureus RN4220, the growth inhibition call was “inactive”.
With `CCS(=O)(=O)N1C[C@]2(CN(C2)C(=O)Nc2ccc3c(c2)OCO3)c2c(n(c3cc(ccc23)OC)C)[C@@H]1CO`, the cytotoxicity call in the experiment on HSkMC and in the experiment with HepG2 was “inactive” in each case. The growth inhibition call in the experiment on S. aureus RN4220 was “inactive”.
With `C[C@@H]1CN([C@@H](C)CO)C(=O)c2cc(NS(=O)(=O)c3cn(C)cn3)ccc2O[C@@H]1CN(C)S(=O)(=O)c1ccc(F)cc1`, the cytotoxicity call in the experiment with HSkMC and with HepG2 was “inactive” throughout. In the experiment on S. aureus RN4220, the growth inhibition call was “inactive”.
As for `CC(c1cc2ccccc2s1)N(O)C(N)=O` (stereo unspecified), the cytotoxicity call in the experiment on HSkMC and with HepG2 was “inactive” in each case. Moreover, the growth inhibition call in the experiment with S. aureus RN4220 was “inactive”.
`C[C@H]1CN([C@@H](C)CO)C(=O)CCCn2nncc2CO[C@@H]1CN(C)C(=O)Nc1ccnc(N2CCOCC2)c1`: the cytotoxicity call with HSkMC and in the experiment on HepG2 was “inactive” each time. The growth inhibition call in the experiment with S. aureus RN4220 is “inactive”.
On to `Cc1cccc(S(=O)(=O)N2C[C@@H](O)COC[C@H]3O[C@@H](CC(=O)NCc4ccncn4)CC[C@@H]32)c1`, for which the cytotoxicity call in the experiment on HSkMC and in the experiment with HepG2 was “inactive” each time. Besides, the growth inhibition call in the experiment with S. aureus RN4220 was “inactive”.
`C[C@@H]1CCCCO[C@H](CN(C)C(=O)Nc2cccc3ccccc23)[C@H](C)CN([C@H](C)CO)C(=O)c2cc(NS(=O)(=O)c3cn(C)cn3)ccc2O1`: the cytotoxicity call in the experiment with HSkMC and in the experiment with HepG2 was “active” in each case. The growth inhibition call in the experiment on S. aureus RN4220 is “inactive”.
Turning to `C[C@@H]1CCCCO[C@@H](CN(C)S(=O)(=O)c2cccs2)[C@H](C)CN([C@H](C)CO)C(=O)c2cc(NC(=O)Nc3ccccc3)ccc2O1`, the cytotoxicity call with HSkMC is “inactive”. Besides, in the experiment on HepG2, the cytotoxicity call is “active”. In the experiment with S. aureus RN4220, the growth inhibition call was “inactive”.
In the case of `C[C@@H]1CN([C@@H](C)CO)C(=O)c2cc(NS(=O)(=O)c3ccccc3)ccc2O[C@H]1CN(C)S(=O)(=O)c1cccs1`, the cytotoxicity call in the experiment on HSkMC and in the experiment with HepG2 was “inactive” in each case. Also, the growth inhibition call with S. aureus RN4220 is “inactive”.
`CC(=O)Nc1ccc(S(=O)(=O)c2ccc(NC(C)=O)cc2)cc1`: the cytotoxicity call in the experiment on HSkMC and in the experiment on HepG2 was “inactive” throughout. For the same compound, in the experiment with S. aureus RN4220, the growth inhibition call is “inactive”.
For `COCC(=O)N(C)C[C@@H]1Oc2cc(C#CC(C)(C)O)ccc2S(=O)(=O)N([C@@H](C)CO)C[C@@H]1C`, the cytotoxicity call with HSkMC and in the experiment with HepG2 was “inactive” in each case. The growth inhibition call in the experiment with S. aureus RN4220 is “inactive”.
With `COc1ccc(CN(C)C[C@@H]2OCCCC[C@@H](C)Oc3ccc(NC(=O)NC(C)C)cc3C(=O)N([C@H](C)CO)C[C@@H]2C)cc1`, the cytotoxicity call in the experiment with HSkMC and in the experiment with HepG2 was “inactive” throughout. For the same compound, the growth inhibition call with S. aureus RN4220 is “inactive”.
With `C[C@@H]1CN([C@H](C)CO)C(=O)c2cccc(NC(=O)C3CCOCC3)c2O[C@H]1CN(C)Cc1ccccc1`, the cytotoxicity call in the experiment on HSkMC and in the experiment on HepG2 was “inactive” in each case. The growth inhibition call with S. aureus RN4220 is “inactive”.
For the compound `C[C@H](CO)N1C[C@H](C)[C@@H](CN(C)S(=O)(=O)c2cn(C)cn2)Oc2ccc(NC(=O)Cc3cn(C)c4ccccc34)cc2CC1=O`, the cytotoxicity call with HSkMC and in the experiment on HepG2 was “inactive” throughout. Also, in the experiment on S. aureus RN4220, the growth inhibition call was “inactive”.
Regarding `C[C@H]1CN([C@@H](C)CO)C(=O)c2cc(NC(=O)Nc3ccc(F)cc3)ccc2O[C@H]1CN(C)C(=O)Nc1ccc(C(F)(F)F)cc1`, the cytotoxicity call in the experiment with HSkMC and in the experiment on HepG2 was “inactive” throughout. Also, the growth inhibition call in the experiment with S. aureus RN4220 is “inactive”.
Consider `CC(C)(C)c1ccc(OC[C@@H](O)CN)cc1`, for which the cytotoxicity call in the experiment on HSkMC and with HepG2 was “inactive” throughout. In the experiment with S. aureus RN4220, the growth inhibition call is “active”.
For `Cc1noc(C)c1NC(=O)Nc1ccc2c(c1)C(=O)N([C@@H](C)CO)C[C@@H](C)[C@@H](CN(C)Cc1ccc(C(F)(F)F)cc1)O2`, the cytotoxicity call in the experiment with HSkMC and with HepG2 was “inactive” each time. Further, in the experiment with S. aureus RN4220, the growth inhibition call is “inactive”.
On to `Cc1ccc(S(=O)(=O)Nc2ccc3c(c2)C(=O)N([C@H](C)CO)C[C@H](C)[C@@H](CN(C)S(=O)(=O)c2cccs2)O3)cc1`, for which the cytotoxicity call in the experiment on HSkMC (human skeletal muscle cells) and in the experiment on HepG2 was “inactive” in each case. The growth inhibition call in the experiment with S. aureus RN4220 was “inactive”.
As to `C[C@@H]1CN([C@@H](C)CO)S(=O)(=O)c2ccc(C#CC3CCCCC3)cc2O[C@H]1CN(C)C(=O)Cc1ccncc1`, the cytotoxicity call with HSkMC and in the experiment with HepG2 was “inactive” in each case. The growth inhibition call in the experiment with S. aureus RN4220 is “inactive”.
Turning to `COc1ccc(S(=O)(=O)Nc2ccc3c(c2)C(=O)N([C@@H](C)CO)C[C@H](C)[C@@H](CN(C)C(=O)Nc2c(C)noc2C)OCCCC[C@H](C)O3)cc1`, the cytotoxicity call in the experiment with HSkMC and in the experiment with HepG2 was “inactive” in each case. Besides, the growth inhibition call with S. aureus RN4220 was “inactive”.
As for `O=C(Oc1ccccc1C(=O)O)c1ccccc1O`, the cytotoxicity call with HSkMC and with HepG2 was “inactive” throughout. For the same compound, the growth inhibition call in the experiment with S. aureus RN4220 is “inactive”.
For `C[C@@H]1CCCCO[C@H](CN(C)Cc2ccccc2)[C@@H](C)CN([C@@H](C)CO)C(=O)c2cc(NC(=O)Nc3ccc(C(F)(F)F)cc3)ccc2O1`, the cytotoxicity call with HSkMC and with HepG2 was “active” each time. The growth inhibition call in the experiment on S. aureus RN4220 was “inactive”.
Turning to `COCC#Cc1ccc([C@@H]2[C@H](CO)N3C(=O)CN(C(=O)CN4CCOCC4)C[C@@H]23)cc1`, the cytotoxicity call in the experiment with HSkMC and in the experiment with HepG2 was “inactive” throughout. Further, the growth inhibition call with S. aureus RN4220 was “inactive”.
`C[C@@H]1CCCCO[C@H](CN(C)C(=O)Nc2cccc3ccccc23)[C@@H](C)CN([C@H](C)CO)C(=O)c2cc(NC(=O)Nc3ccc(F)cc3)ccc2O1`: the cytotoxicity call with HSkMC and with HepG2 was “inactive” in each case. Further, the growth inhibition call in the experiment with S. aureus RN4220 was “inactive”.
`C[C@@H]1CCCCO[C@H](CN(C)C(=O)Nc2ccccc2)[C@@H](C)CN([C@H](C)CO)C(=O)c2cc(NC(=O)Nc3ccc(F)cc3)ccc2O1`: the cytotoxicity call in the experiment with HSkMC and in the experiment with HepG2 was “inactive” in each case. Besides, the growth inhibition call with S. aureus RN4220 is “inactive”.
